Results on 90 molecules are retold here after PMC4336329 (PLoS ONE, 2015).

Screen size: about 310,000 compounds; about 14,000 (4.5%) showed an effect of 50% or more. The effect is printed as a negative number. This is one part of the list.
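Note: peak tail current of the secondary pulse compared with the same well before compound.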

For this assay, the target named is human ether-à-go-go-related gene (hERG) potassium channel (human, UniProt Q12809). In words: primary screen, population patch clamp on CHO cells stably expressing hERG.
human ether-à-go-go-related gene (hERG) potassium channel, sequence (Q12809 whole entry, looked up): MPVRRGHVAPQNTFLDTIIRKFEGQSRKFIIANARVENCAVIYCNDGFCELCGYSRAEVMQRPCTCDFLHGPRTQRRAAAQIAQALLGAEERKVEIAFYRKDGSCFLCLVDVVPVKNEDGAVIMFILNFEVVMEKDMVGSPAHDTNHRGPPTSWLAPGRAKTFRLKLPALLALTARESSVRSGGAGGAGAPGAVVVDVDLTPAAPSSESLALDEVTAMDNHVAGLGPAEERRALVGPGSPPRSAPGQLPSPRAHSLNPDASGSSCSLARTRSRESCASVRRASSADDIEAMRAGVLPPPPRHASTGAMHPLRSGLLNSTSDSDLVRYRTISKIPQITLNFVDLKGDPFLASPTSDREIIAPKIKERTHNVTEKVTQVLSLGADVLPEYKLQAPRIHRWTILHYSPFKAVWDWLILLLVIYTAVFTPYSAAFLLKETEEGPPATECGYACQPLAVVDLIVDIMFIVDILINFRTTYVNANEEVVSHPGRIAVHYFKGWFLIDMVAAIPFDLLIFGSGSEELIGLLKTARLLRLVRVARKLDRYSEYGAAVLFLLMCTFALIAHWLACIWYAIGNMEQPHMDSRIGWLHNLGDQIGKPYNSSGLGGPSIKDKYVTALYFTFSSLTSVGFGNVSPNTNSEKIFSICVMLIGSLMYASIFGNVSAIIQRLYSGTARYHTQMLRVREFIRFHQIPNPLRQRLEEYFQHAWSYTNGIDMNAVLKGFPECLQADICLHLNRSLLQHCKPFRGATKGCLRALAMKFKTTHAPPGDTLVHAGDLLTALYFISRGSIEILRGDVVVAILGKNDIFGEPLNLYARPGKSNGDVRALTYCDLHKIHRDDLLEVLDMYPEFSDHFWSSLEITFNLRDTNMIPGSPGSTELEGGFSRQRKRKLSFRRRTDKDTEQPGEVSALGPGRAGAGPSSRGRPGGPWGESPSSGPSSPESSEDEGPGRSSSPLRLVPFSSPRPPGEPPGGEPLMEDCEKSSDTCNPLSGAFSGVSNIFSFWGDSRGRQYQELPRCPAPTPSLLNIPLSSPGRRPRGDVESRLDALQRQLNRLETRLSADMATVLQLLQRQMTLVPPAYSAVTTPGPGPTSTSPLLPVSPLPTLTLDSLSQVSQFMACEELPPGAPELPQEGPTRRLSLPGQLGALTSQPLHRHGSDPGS
As for `CC(C)[N+]1(C)[C@@H]2CC[C@@H]1CC(OC(=O)C(CO)c1ccccc1)C2.[Br-]` (stereo partly drawn), the “hERG current change (%, negative = inhibition) at 10uM” value is given as 9.01%. As for `COC(=O)[C@@H]1C[C@H]2CC[C@H](O)C[C@H]2N1Cc1ccc(-c2ccccc2)cc1`, the figure is 16.5%; as for `Cc1ccc(NC(=S)Nc2cccc(-c3n[nH]c(=S)o3)c2)cc1`, 16.7%. `Cc1cccc2cc(C(c3nnnn3Cc3ccc4c(c3)OCO4)N3CCCC3)c(=O)[nH]c12` (stereo not drawn): the “hERG current change (%, negative = inhibition) at 10uM” value is -15.7%. The value for `CC(=O)Nc1ccc(OCc2nnc(-c3ccccc3)o2)cc1` was -0.46%.

`COc1ccccc1C(C[N+](=O)[O-])c1c[nH]c2ccccc12` (stereo not drawn): the “hERG current change (%, negative = inhibition) at 10uM” value was -12.4%. The value for `COc1cc(NC(=O)CCS(=O)(=O)c2ccc3nc(C)sc3c2)cc(OC)c1OC` was 6.74%; that for `Fc1ccc(CSc2ccc3nnc(-c4ccccn4)n3n2)cc1` was -87.6%. As for `Cc1ccccc1OCC(O)Cn1c(=N)n(Cc2ccccc2)c2ccccc21.Cl` (stereo not drawn), the figure is -73%; as for `CN(CC(=O)Nc1ccc(OC(F)(F)F)cc1)C(=O)Cc1c(Cl)cccc1Cl`, 11.2%. For `Cn1ncc([N+](=O)[O-])c1C(=O)NC1CCCCC1`, the “hERG current change (%, negative = inhibition) at 10uM” value stood at 24.1%. As for `Cc1ccc(S(=O)(=O)N2CCN(C(=O)Cc3ccc4c(c3)OCCO4)CC2)cc1C`, the “hERG current change (%, negative = inhibition) at 10uM” value is listed as -40.8%. In the case of `O=C(Sc1ccccc1)c1cccc(Cn2cc(C(F)(F)F)ccc2=O)c1`, the “hERG current change (%, negative = inhibition) at 10uM” value is -21%. The value for `COc1ccc([N+](=O)[O-])cc1NC(=O)c1ccc(C)o1` was -1.33%; that for `CCSc1nnc(-c2ccncc2)n1Cc1ccccc1` was -18.5%; that for `COC(=O)CNC(=O)c1cccc(F)c1` was 8.24%. The value for `COc1cccc(OC)c1C(=O)NNC(=O)c1ccc(F)cc1` was 26.9%; that for `COc1ccc(-c2cc(C(F)(F)F)nc(SCC(=O)NCc3cccs3)n2)cc1` was -0.806%; that for `CC(C)(C)C(=O)Nc1ccccc1C(=O)NCc1cccnc1` was 17.3%. On to `COc1ccc(-n2c(=O)[nH]c3c(C(N)=O)nc(C4CCCCC4)nc32)cc1`, for which the “hERG current change (%, negative = inhibition) at 10uM” value is -6.53%.

On to `CC(=O)Nc1c(NC(=O)CC#N)[nH]c2c(c1=O)c(=O)n(C)c(=O)n2C`, for which the “hERG current change (%, negative = inhibition) at 10uM” value came to 15.6%. The value for `O=c1c2ccccc2cnn1Cc1n[nH]c(=S)n1-c1ccccc1F` was 18.8%. For the molecule `Fc1cccc2sc(N3CCOCC3)nc12`, the “hERG current change (%, negative = inhibition) at 10uM” value came to 8.35%.

As to `COc1cc(-c2cc(=O)c3c(O)cc(O)cc3o2)ccc1O`, the “hERG current change (%, negative = inhibition) at 10uM” value was 17.3%. The value for `O=C(Nc1ccccc1[N+](=O)[O-])c1cncc(Br)c1` was -0.382%; that for `CSc1nc(N)nc(SCC(=O)Nc2ccc(Cl)cc2)c1C#N` was -11.1%; that for `Nc1cc([N+](=O)[O-])ccc1Nc1ccc(O)cc1` was -8.83%. As for `CCCCC(=O)N/N=C/c1c(O)n(Cc2ccco2)c(=O)[nH]c1=O`, the figure is 8.09%; as for `OC(c1ccc(Cl)cc1)c1nnc(-c2ccccc2)o1` (stereo not drawn), 2.19%; as for `CCC[C@@H]1CCCC/C=C\CCCC(=O)OCCN1C(=O)OC(C)(C)C`, -3.14%. On to `O=C(NC(=S)Nc1nc(-c2cccc3ccccc23)cs1)c1cc2ccccc2o1`, for which the “hERG current change (%, negative = inhibition) at 10uM” value is -0.27%. As for `CN(NC(=O)c1ccc(Cl)cc1)c1cccc(Cl)n1`, the figure is -14.2%. `CC12CC[C@H]3[C@@H](CCC4(O)C[C@H](O)CCC34/C=N/NC(=O)Cc3ccccc3)C1(O)CCC2C1=CC(=O)OC1` (stereo partly drawn): the “hERG current change (%, negative = inhibition) at 10uM” value is recorded as 11.2%. As for `O=S(=O)(Nc1ccc2c(c1)OCCO2)c1cccs1`, the figure is 5.92%; as for `COc1cc(C2C3=C(CC(c4ccco4)CC3=O)Nc3ccccc3N2C(C)=O)cc(OC)c1OC` (stereo not drawn), 4.52%.

For the molecule `Cc1ccc(S(=O)(=O)N2CCCC(C(=O)NCC(C)C)C2)cc1` (stereo not drawn), the “hERG current change (%, negative = inhibition) at 10uM” value is recorded as 3.46%. The value for `COc1ccc(-c2nc(C)ncc2-c2ccccc2)c(O)c1` was -1.19%. As for `CNc1oc(-c2ccccc2F)nc1S(=O)(=O)c1ccc(C)cc1`, the figure is 2.47%; as for `CCc1cc2c(SCC(=O)N3CC(=O)Nc4ccccc43)ncnc2s1`, -12.6%; as for `Cc1cccc([N+](=O)[O-])c1NC(=O)CSc1nnc2ccccn12`, 9.29%. As for `Cc1ccc(C(=O)NCc2nnc(SCC(=O)Nc3ccccc3)n2C)cc1`, the figure is -46.5%. With `COc1cc(S(=O)(=O)N2CCCCCC2)c(OC)cc1Br`, the “hERG current change (%, negative = inhibition) at 10uM” value is given as -7.25%. The value for `Cc1ccc(CN2C(=O)CCC2C(=O)NCCN2CCN(c3cccc(Cl)c3)CC2)cc1` (stereo not drawn) was -48.1%; that for `O=C(Nc1ccc(Cn2cccn2)cc1)c1ccc(COc2ccc(Br)cc2)cc1` was 16.8%.

Consider `O=C(CN1CCCCC1)Nc1nnc(-c2ccccc2)s1`, for which the “hERG current change (%, negative = inhibition) at 10uM” value was -12.3%.

As to `O=C(CSC1=Nc2ccccc2C2=NC(c3ccccc3)C(=O)N12)NC1CCCCC1` (stereo not drawn), the “hERG current change (%, negative = inhibition) at 10uM” value is -20.1%.

As to `CCCCOc1ccc(/C=C/C(=O)OCC(=O)c2c(N)n(C)c(=O)n(C)c2=O)cc1OCC`, the “hERG current change (%, negative = inhibition) at 10uM” value is 5.01%.

As to `O=c1c2c(nc3n1CCCCC3)-c1ccccc1CC21CCCC1`, the “hERG current change (%, negative = inhibition) at 10uM” value is recorded as -31%. Consider `Cn1c(Nc2cccc(Cl)c2)nc2ccccc21`, for which the “hERG current change (%, negative = inhibition) at 10uM” value is reported as 2.08%. As for `CC(C)(C)N1C(=O)c2ccc(C(=O)Nc3nccs3)cc2C1=O`, the figure is 0.415%; as for `S=C1NNC2(CC3CC2C2CCCC32)NN1` (stereo not drawn), 20.5%. As for `Cc1ccc(-c2nc(NC(=O)CSc3ccc4ccccc4n3)ns2)cc1`, the figure is 2.03%. As for `O=C(NCCCCc1ccccc1)c1ccc(Br)cc1`, the figure is 16.4%. In the case of `CCN(CC(=O)Nc1c(F)cccc1F)C(=O)Cc1c(C)nc2ccccc2c1C`, the “hERG current change (%, negative = inhibition) at 10uM” value was -55.1%. The value for `Cc1ccsc1C(=O)OCC(=O)N1CC(=O)Nc2ccccc21` was 8.69%. As for `Cc1ccccc1NS(=O)(=O)c1cc(C(=O)Nc2cccc(N(C)S(C)(=O)=O)c2)ccc1C`, the figure is 2.52%. The value for `Cc1sc(NC(=O)c2ccco2)c(CN2CCCCC2)c1C` was -49.9%. With `Cc1ccc(NC(=O)CN2CCCC2)c2c1CC(C)(C)O2`, the “hERG current change (%, negative = inhibition) at 10uM” value is 26.9%. Regarding `CC(CC(=O)Nc1cccnc1)c1ccccc1` (stereo not drawn), the “hERG current change (%, negative = inhibition) at 10uM” value turned out to be 23%. Regarding `COc1ccccc1CCC(=O)OCC(=O)Nc1cccc(S(=O)(=O)N2CCCCC2)c1`, the “hERG current change (%, negative = inhibition) at 10uM” value is given as -6.37%.

As to `O=C(Nc1sc2c(c1C(=O)O)CCCC2)c1ccc(F)cc1`, the “hERG current change (%, negative = inhibition) at 10uM” value stood at 10.1%. The value for `CC(=O)c1ccc(NC(=S)NC(NC(=O)c2ccco2)C(Cl)(Cl)Cl)cc1` (stereo not drawn) was -3.92%. The value for `O=C(COC(=O)c1ccc(-c2nnc(-c3ccccc3)o2)cc1)c1ccccc1` was 16.8%. As to `COC(=O)c1ccc(Oc2c(F)c(F)nc(N3CCOCC3)c2F)cc1`, the “hERG current change (%, negative = inhibition) at 10uM” value was 15.8%. The value for `CCN(CC)CCOC(=O)c1cc2cc(COC)ccc2o1.CI` was 17%; that for `O=C(c1ccc([N+](=O)[O-])o1)N1CCOCC1` was 1.3%; that for `COCCN1C=C(C(=O)OC)C(c2cc3c(cc2Br)OCO3)C(C(=O)OC)=C1` was -1.89%. The value for `COC(=O)C(C(=O)Nc1cccc(Cl)c1C)C1CCCC1` (stereo not drawn) was 3.99%; that for `Cn1nc(C(C)(C)C)cc1C(=O)NNC(=O)c1ccccc1Cl` was 14.1%.

As for `CCn1c(-c2ccccc2Cl)nn(CC(=O)Nc2ccccc2OC)c1=S`, the “hERG current change (%, negative = inhibition) at 10uM” value was -1.37%. `CCOC(=O)C1CCCN(Cc2ccc(OCc3ccccc3)cc2)C1.O=C(O)C(=O)O` (stereo not drawn): the “hERG current change (%, negative = inhibition) at 10uM” value is listed as -40.6%. The value for `COC(=O)CN(Cc1ccco1)S(=O)(=O)c1ccccc1` was -13.7%; that for `N#Cc1ccc(Oc2ccc(S(=O)(=O)N3CCCC3)cn2)cc1` was -35.8%; that for `COc1ccc(C2(CN(C(C)=O)C(C)=O)CCCC2)cc1OC` was 8.14%.

With `O=C(CC(=O)N/N=C\c1ccc(F)cc1)NCCc1ccccc1`, the “hERG current change (%, negative = inhibition) at 10uM” value came out at 17.2%. The value for `CC1CCN(C(=O)c2ccc3c(c2)NC(=O)CN3)CC1` was 8.49%; that for `CC1CN(CCOCCSc2ccccc2)CC(C)O1.Cl` (stereo not drawn) was -14.9%; that for `Cc1c(C(=O)OC(C)C)sc(N)c1C(=O)OC(C)C` was -6.59%. As for `COc1ccccc1N1CCN(c2nc(C)nc3c2oc2ccccc23)CC1.Cl`, the figure is -1.5%. The value for `COc1cccc(/C=N/NC(=O)c2c(C)nc3ccc(Cl)cn23)c1O` was 19%. Turning to `O=C1NCCN1Cc1ccc(F)cc1`, the “hERG current change (%, negative = inhibition) at 10uM” value was -1.99%. As for `OCCNCCCCCOc1ccc(F)cc1`, the figure is -12.2%. The value for `COc1ccccc1N1CCN(C(c2cccs2)C(C)NC(=O)c2ccncc2)CC1` (stereo not drawn) was -6.58%.

Regarding `CCc1ccccc1NC(=O)c1cc(-c2ccc(F)cc2)on1`, the “hERG current change (%, negative = inhibition) at 10uM” value is listed as 25.8%. As for `O=C1COc2ccc(C(=O)COC(=O)/C=C/c3ccco3)cc2N1`, the figure is 5.09%; as for `COc1ccc(C(=O)Nc2ccc3c(c2)OCCO3)cc1Br`, 9.98%. As for `CCc1cc2cc(C(=O)N3CCN(Cc4ccccc4)CC3)sc2s1`, the figure is -36.7%; as for `CCOC(=O)C1(CCOC)CCN(C(=O)c2ccc(CSC)o2)CC1`, 0.525%.

Regarding `Cc1cccc(C)c1NC(=O)CN(C)C(=O)c1ccccc1C(=O)N(C)Cc1ccccc1`, the “hERG current change (%, negative = inhibition) at 10uM” value turned out to be 1.05%. The value for `CC(=O)Nc1ccc(/C=C/c2ccc3cccc([N+](=O)[O-])c3n2)cc1` was -7.33%.
